# Where “and” joins values, the source holds several entries; their conditions need not be identical. Equal values may be shown once. In all, about 420,000 compounds went through this assay and about 50,000 (12%) were called active. The inconclusive results got no clear call from the source; some entries with a clear call stand among them for comparison. Calls come from the whole dose curve; as a rule, active = well fitted inhibition curve with a large enough effect; inconclusive = small, poorly fitted or top-dose-only effect; inactive = flat fitted curve, though single readings scatter. Potencies beside an inconclusive call are fits to weak or partial responses and may not hold up.
# Assay: qHTS for Inhibitors of human tyrosyl-DNA phosphodiesterase 1 (TDP1): qHTS in cells in presence of CPT; note: nearly all actives have a fitted effect of over 55% in size
# Settings: chicken DT40 Tdp1-/-;hTDP1 cells + 20 nM CPT, ATP luminescence, 48 h; activity change, negative = growth inhibition: at 46.2 µM (top of the series) unless noted
# How it was run: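 Chicken DT40 Tdp1-/- cells complemented with human TDP1, 400 cells/well, exposed to compounds plus 20 nM camptothecin for at least 48 h at 37 C; viability read as ATP content by CellTiter-Glo luminescence.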
# % is set by controls: 0 for no effect and ±100 for the full control effect; potency is the fitted concentration of half-maximal effect; tags give direction and shape of the fitted curve.
Structure (SMILES),"activity change, negative = growth inhibition",Potency
N#Cc1ccc(-c2ccc3c(c2)OCO3)nc1SCC(=O)OCc1ccccc1,inactive: 1.33%,
CCCn1c(SCC(=O)c2cc(C)ccc2C)n[nH]c1=O,inactive: -17.1%,
CCOC(=O)N1CCN(S(=O)(=O)c2ccc(F)c(C(=O)Nc3cccc(Cl)c3C)c2)CC1,,"inconclusive: 29.1 µM [inhibitor, single point]"
COC(=O)c1ccc(NCc2cc(O)ccc2O)cc1O,,active: 5.17 µM
COc1ccc(N(C)S(=O)(=O)c2ccc3c(c2)CCN3C(=O)C2CC2)c(OC)c1,,active: 16.4 µM
CC(C)(C)c1ccc(C(O)c2ncc(-c3cccc(F)c3)[nH]2)cc1 (stereo unspecified),,active: 14.6 µM
COc1ccc(OCCN2CCC(C(=O)NC(c3ccc(F)cc3)c3ncccc3C)CC2)cc1 (stereo unspecified),,"inconclusive: 29.1 µM [inhibitor, single point]"
CCCCN(CCCC)c1ccc(Cn2ccc3ccccc32)cc1,,active: 7.94 µM
Cc1cccc(C)c1OCc1nnc(SCC(=O)NCc2ccccc2)o1,,"inconclusive: 16.4 µM [inhibitor, single point]"
CCOC(=O)c1ccc(NC(=O)c2ccc3c(c2)c(C)c(C)n3Cc2ccc(F)cc2)cc1,,active: 9.2 µM
COc1cccc(-c2nc(CS(=O)(=O)CC(=O)NCCN3CCOCC3)c(C)o2)c1,inactive: 7.99%,
Cc1ccc(CNc2ncnc3nc[nH]c23)cc1,,"inconclusive: 12.6 µM [inhibitor, single point]"
CCOC(=O)N1CCC(NC(=O)c2ccc3c(c2)N(Cc2ccccc2)CCS3)CC1,,active: 18.4 µM
CN(CC1COCCO1)C(=O)c1cnn(-c2ncc3c(n2)-c2ccccc2CC3)c1C1CC1 (stereo unspecified),,"inconclusive: 25.9 µM [inhibitor, single point]"
CC(C)NC(=O)c1ccc2c(=O)n(CC3CCCO3)c(=S)[nH]c2c1 (stereo unspecified),inactive: 2.68%,
O=C(NCc1ccncc1)c1cc(-c2ccc(Cl)cc2)oc1C(F)(F)F,,"inconclusive: 16.4 µM [inhibitor, single point]"
O=C(CCN1C(=O)c2cccc3cccc(c23)C1=O)Nc1ccon1,inactive: -1.33%,
COc1ccc(-n2nnnc2SCC(=O)c2cccc(OC)c2)cc1,,"inconclusive: 29.1 µM [inhibitor, single point]"
Cc1ccc(NS(=O)(=O)c2ccc(-n3cccn3)cc2)c(C)c1,,active: 18.4 µM
Cc1oc(/C=N/NC(=O)CC2(C)OCCO2)cc1Br,inactive: 28.9%,
CC(C)C(NC(=O)c1ccc(C(C)(C)C)cc1)C(=O)N1CCC(C(N)=O)CC1 (stereo unspecified),,"inconclusive: 29.1 µM [inhibitor, single point]"
O=C(CN1CCOCC1)Nc1ccc(N2CCN(c3ccccc3)CC2)c(F)c1,inconclusive: -30.9% [inhibitor],
COc1cccc(CSc2nc3ccccc3[nH]2)c1,,"inconclusive: 18.4 µM [inhibitor, single point]"
Cc1cccc(C(=O)NCC(=O)OCCOc2ccccc2Cl)c1,,"inconclusive: 5.8 µM [inhibitor, single point]"

Structure (SMILES),"activity change, negative = growth inhibition",Potency
COC(=O)c1ccc(NC(=O)NCCCl)cc1,,"inconclusive: 29.1 µM [inhibitor, single point]"
COc1cc(OC)c(C(=O)OCC(=O)N2CCN(S(=O)(=O)c3ccc(C)cc3C)CC2)cc1OC,,"inconclusive: 16.4 µM [inhibitor, single point]"
COc1ccccc1NC(=O)c1oc2ccccc2c1NC(=O)c1c(F)cccc1F,,"inconclusive: 6.51 µM [inhibitor, partial curve]"
COc1ccc(-n2c(=O)c(C)nc3cnc(Nc4cccc(OC)c4)nc32)cc1,,active: 23.1 µM
CCOC(=O)C1(C)C=C(Nc2ccc(OC)cc2)C(=O)N1c1ccccc1 (stereo unspecified),inconclusive: 7.5% [inhibitor],
CCOC(=O)C1(CC2CC2)CCN(Cc2cnc(-c3ccccc3C)nc2)CC1,,active: 14.6 µM
Cc1ccc(Cl)cc1NC(=S)Nn1cnnc1,inactive: -18.5%,
Cc1cccc(NCc2nc3ccccc3n2Cc2ccccc2)c1,,active: 14.6 µM
COc1ccc(Cn2cc(C(=O)c3ccc(Cl)cc3)c(=O)c3cc4c(cc32)OCO4)cc1,,"inconclusive: 16.4 µM [inhibitor, single point]"
O=C(NC(=S)Nc1ccc2[nH]c(=O)[nH]c2c1)c1ccccc1[N+](=O)[O-],inactive: 6.39%,
CC(=O)N1c2ccc(C)cc2C(c2ccccc2)CC1C (stereo unspecified),,"inconclusive: 29.1 µM [inhibitor, single point]"
CCc1nc2ccccc2c(C(=O)OCC(=O)NC(=O)c2cccn2C)c1C,,"inconclusive: 32.6 µM [inhibitor, single point]"
Cc1ccc(N(C(=O)Cn2nnc(-c3ccc(F)cc3)n2)C(C(=O)NC(C)(C)C)c2ccncc2)cc1 (stereo unspecified),inactive: -10.2%,
Cc1cc(C)c(Cn2c3ccccc3c3cnn(CC(=O)NC4CCCCCC4)c(=O)c32)c(C)c1,inactive: -21.9%,
CC(=O)Nc1ccc(-c2ccnc3c2CC(C)(C(=O)NCc2ccc(N(C)C)cc2)O3)cc1 (stereo unspecified),,"inconclusive: 7.31 µM [inhibitor, partial curve, poor fit]"
CCCC(c1nnnn1Cc1ccc(OC)cc1)N1CCN(c2ccccc2OC)CC1 (stereo unspecified),,"inconclusive: 20.6 µM [inhibitor, single point]"
CC(C)C[C@@H](COc1ccccc1)N1CCN(Cc2ccccc2)CCC1=O,,"inconclusive: 35.5 µM [inhibitor, single point] and inconclusive: 32.6 µM [inhibitor, single point]"
CC1CCN(C(=S)NC(=O)c2ccc(F)cc2)CC1,,"inconclusive: 29.1 µM [inhibitor, single point]"
CCCN(CC(=O)Nc1ccc(F)c(F)c1F)C(=O)Cn1c(=O)cnc2ccccc21,inactive: -8.23%,
CCOC(=O)Cn1cnc2sc(C(=O)OC)c(C)c2c1=O,,"inconclusive: 14.6 µM [inhibitor, single point]"
Cc1ccccc1-n1ncc2c1CC(C)(C)CC2NC(=O)c1snnc1C (stereo unspecified),,"inconclusive: 20.6 µM [inhibitor, partial curve]"
COc1cccc(C(=O)N2CCC(CCC(=O)Nc3cccc(C)c3)CC2)c1,,"inconclusive: 29.1 µM [inhibitor, single point]"
COc1cc2c(cc1OC)C(Cc1ccccc1[N+](=O)[O-])=NCC2,,"inconclusive: 20.6 µM [inhibitor, single point]"
CC(C)CSc1ccc(S(=O)(=O)NCC(=O)O)cc1[N+](=O)[O-],inactive: 2.2%,

Structure (SMILES),"activity change, negative = growth inhibition",Potency
COc1cccc(Cn2c(=O)c(C)nc3cnc(N4CCN(C)CC4)nc32)c1,,"inconclusive: 29.1 µM [inhibitor, single point]"
O=C(/C=C/c1ccccc1Cl)c1cccnc1,,active: 7.31 µM
COc1ccc(S(=O)(=O)N2CCOCC2)cc1NC(=O)c1cc2ccccc2o1,,"inconclusive: 29.1 µM [inhibitor, single point]"
Cc1ccc(F)c(S(=O)(=O)NC(=O)C2(C)CCN2C(=O)CC(c2ccccc2)c2ccccc2)c1 (stereo unspecified),,"inconclusive: 25.9 µM [inhibitor, single point]"
CC1CCN(C(=S)NC(=O)c2ccc(C(C)(C)C)cc2)CC1,,active: 23.1 µM
CC1(C(=O)NCc2cccc(Cl)c2)Cc2c(-c3ccc(C(N)=O)cc3)ccnc2O1 (stereo unspecified),inactive: -26.8%,
Cc1ccc(CNC(=O)[C@H]2C[C@@H]2[C@H](NP(=O)(c2ccccc2)c2ccccc2)c2ccccc2)o1,,"inconclusive: 23.1 µM [inhibitor, single point]"
COC(=O)C1CN(S(=O)(=O)c2cc(OC)ccc2OC)CCS1 (stereo unspecified),inactive: -23.2%,
C=CCn1c(CSc2ccccc2[N+](=O)[O-])n[nH]c1=S,inactive: 4.85%,
O=C(/C=C/c1ccco1)Nc1nnc(-c2ccco2)s1,,"inconclusive: 6.51 µM [inhibitor, partial curve]"
Cc1cc(C(=O)Nc2c(C)nn(Cc3ccc(F)cc3)c2C)on1,inactive: 7.67%,
CCOc1ccc2nc(SC3CC(=O)N(c4ccc(OC)cc4OC)C3=O)sc2c1 (stereo unspecified),,active: 4.61 µM
CN(Cc1c(C(=O)N/N=C/c2cc(F)ccc2F)nnn1-c1nonc1N)C1CCCCC1,,"inconclusive: 23.1 µM [inhibitor, single point]"
CCn1c(SCC(=O)N/N=C/c2c[nH]c3ccccc23)nnc1-c1ccc(Cl)cc1,,"inconclusive: 32.6 µM [inhibitor, single point]"
Cc1ccc(CNC(=O)CNC(=O)[C@@H]2Cc3ccccc3CN2)cc1,inactive: -10.4%,
COc1cc(OC)cc(C(=O)Nc2ccc(S(=O)(=O)N3CCCCC3c3cccnc3)cc2)c1 (stereo unspecified),,"inconclusive: 29.1 µM [inhibitor, single point]"
CCOc1ccc(/C(O)=C2/C(=O)C(=O)N(CCCN3CCOCC3)C2c2ccc(C)cc2)cc1C (stereo unspecified),inactive: -4.93%,
O=C(Nc1cccc(Cl)c1Cl)c1cc(S(=O)(=O)N2CCC3(CC2)OCCO3)ccc1F,,"inconclusive: 20.6 µM [inhibitor, single point]"
CCCNC(=O)C1CN(C(=O)c2nn(Cc3ccccc3)c(=O)c3ccccc23)c2ccccc2O1 (stereo unspecified),,"inconclusive: 14.6 µM [inhibitor, partial curve]"
O=C(NC1CC1)c1ccc(CN(c2ccccc2)S(=O)(=O)c2ccccc2)cc1,inactive: -19.8%,
O=C1NC[C@@H](c2ccccc2)OC(=O)[C@@H](Cc2ccc(F)cc2)CC/C=C/C[C@H]1CC(=O)N(CCO)Cc1ccccc1,,active: 13 µM
Cc1cccc(NC2=C(C#N)C(=O)NC3(CCCC3)S2)c1,,"inconclusive: 29.1 µM [inhibitor, single point]"
O=C(Nc1ccc(O)cc1)c1ccc(NC(=O)c2cccs2)cc1,,"inconclusive: 29.1 µM [inhibitor, single point]"
